The other results are listed elsewhere or left out. Single values are uncertain, as repeats are few or missing.
Key:
Assay in all cases: cell count relative to DMSO control; melanoma cells; higher = more viable cells
Conditions in all cases: library dose: low library concentration; 72 h
[1] = tested on: WM115
[2] = tested on: WM1716
[3] = tested on: WM1745
[4] = tested on: WM3526
[5] = tested on: WM3619
[6] = tested on: WM451Lu
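Note: cell number obtained by counting DAPI-stained nuclei in high-throughput microscope images with image analysis software, screen run in 1,536-well plates.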

Compound	cell count [1] [%]	cell count [2] [%]	cell count [3] [%]	cell count [4] [%]	cell count [5] [%]	cell count [6] [%]
C[C@]1(O)C[C@@H](c2nc(-c3ccc4ccc(-c5ccccc5)nc4c3)c3c(N)nccn32)C1 + Cn1cncc1[C@@](N)(c1ccc(Cl)cc1)c1ccc2c(c1)c(-c1cccc(Cl)c1)cc(=O)n2C [tipifarnib] (first compound 0.4 µM, partner dose 0.01 µM)	95.1	73.4	70.6	73.5	105	71.3
CCN(CC)CCNC(=O)c1c(C)[nH]c(/C=C2\C(=O)Nc3ccc(F)cc32)c1C [sunitinib] + O=c1cc(-c2cccc3c2Sc2ccccc2S3)oc(N2CCOCC2)c1 [KU55933] (first compound 0.4 µM, partner dose 1 µM)	86.6	148	56	69.9	144	92.1
COc1cc([C@@H]2c3cc4c(cc3[C@@H](O[C@@H]3O[C@@H]5CO[C@@H](C)O[C@H]5[C@H](O)[C@H]3O)[C@H]3COC(=O)[C@H]23)OCO4)cc(OC)c1O [etoposide] + C=C(c1ccc(C(=O)O)cc1)c1cc2c(cc1C)C(C)(C)CCC2(C)C [Bexarotene] (first compound 0.02 µM, partner dose 2 µM)	88.5	72.9	93.3	86.3	87.9	94.5
CCN(CC)CCNC(=O)c1c(C)[nH]c(/C=C2\C(=O)Nc3ccc(F)cc32)c1C [sunitinib] + CC(C)(C)c1cnc(CSc2cnc(NC(=O)C3CCNCC3)s2)o1 [SNS-032] (first compound 0.4 µM, partner dose 0.01 µM)	87.5	116	69.9	116	89.4	104

Reference: the supplement of paper PMC4604168 (melanoma cell lines)
